Laboratory results reported in PubChem BioAssay AID1347417 (National Center for Advancing Translational Sciences (NCATS), 2020).
In all, about 120,000 compounds went through this assay and about 5,300 (4.4%) were called active. This list was built around the results that the source calls inconclusive (neither active nor inactive); the mix of calls is not that of the screen. Calls come from the whole dose curve; as a rule, active = well fitted inhibition curve with a large enough effect; inconclusive = small, poorly fitted or top-dose-only effect; inactive = no such curve, though single readings can be large or run the other way. Potencies beside an inconclusive call are fits to weak or partial responses and may not hold up.
Potency is the fitted concentration of half-maximal effect; tags give direction and shape of the fitted curve.

Assay: qHTS Primary assay for Inhibitors of Plasmodium falciparum Dd2 growth in vitro; note: nearly all actives have a fitted effect of over 65% in size;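 for activity, negative = inhibition: plate controls were DMSO vehicle for no effect and reference drug for full effect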
Conditions: P. falciparum Dd2 growth, SYBR Green, 72 h; activity, negative = inhibition: at 28.9 µM (top of the series) unless noted; series mostly up to 28.9 µM
In short: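 Readout: SYBR Green fluorescence, 485 nm excitation, 535 nm emission, after ~16 h lysis at 37C. Before that, Dd2-infected red cells (2.5% hematocrit) grew 72 h with compound, 29 uM top final concentration.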
In the case of `N#Cc1ccc(CNC(=O)[C@@H]2Cc3nc[nH]c3CN2Cc2ccccc2)cc1`, the Potency is reported as inconclusive: 31.6 µM [inhibitor, single point]. For `Cc1ccc(C)c(Nc2nc3nonc3nc2Nc2cccc(C)c2C)c1`, the Potency was inconclusive: 14.1 µM [inhibitor, single point]. With `CC(C)c1ccccc1OCC(=O)c1ccc2c(c1)N(CC(=O)NCC1CC1)C(=O)CO2` the “outcome” value was “inactive”. For `CC1CCN(Cc2ccccc2OCC(O)CN2CCSCC2)CC1` (centres undefined), the Potency was active: 4.47 µM. With `CCc1ccc(NC(=O)Cn2c(-c3cnccn3)nc(C)c(C)c2=O)cc1` the “outcome” value was “inactive”. With `CCCCCNC(=O)CCn1c(=O)[nH]c2ccccc2c1=O` the Potency was inconclusive: 3.16 µM [inhibitor, full curve]. In the case of `CN(C)CCCC(=O)N1CCC2(CC1)CN(C(=O)CCC(=O)O)CCO2`, the “activity, negative = inhibition” value is reported as inactive: 3.15%. In the case of `COCC1CN(C)CC12CCN(C(=O)c1cc(Cl)ccc1OC)CC2` (centres undefined), the Potency is reported as inconclusive: 8.91 µM [inhibitor, single point]. For `Cc1cc(S(=O)(=O)NCC(c2ccc(N(C)C)cc2)N2CCOCC2)ccc1F` (centres undefined), the “activity, negative = inhibition” value was inactive: -27.3%. With `O=C(CSC1=Nc2ccccc2N=C(c2ccc(F)cc2)C1)NCc1ccc(Cl)cc1` the Potency was inconclusive: 14.1 µM [inhibitor, single point]. In the case of `COc1cccc(NC(=O)C2(C)CN(C)Cc3ccc(NCc4ccccc4)nc32)c1` (centres undefined), the Potency is reported as inconclusive: 2.51 µM [inhibitor, partial curve, poor fit]. For `CN(Cc1ncc[nH]1)c1ccc(-c2nc(CCCc3ccccc3)no2)cn1`, the Potency was active: 4.47 µM. In the case of `COc1ccc(NC(=O)C2CCN(C(=O)c3ncn4c3COC(c3ccc(OC)cc3)C4)CC2)cc1` (centres undefined), the Potency is reported as inconclusive: 11.2 µM [inhibitor, single point]. For `Cc1ccc(CN[C@@H]2CO[C@H](CNC(=O)Nc3ccccc3)[C@H]2O)cc1`, the Potency was inconclusive: 31.6 µM [inhibitor, single point]. In the case of `CCc1cc(=O)n(CC(=O)Nc2cccc(Cl)c2C)c(N2CCOCC2)n1`, the “activity, negative = inhibition” value is reported as inactive: -24.9%. With `O=C(O)CCc1ccc(-c2cccs2)n1CC(=O)Nc1ccccc1C(F)(F)F` the Potency was inconclusive: 8.91 µM [inhibitor, partial curve, poor fit]. In the case of `COc1ccc(Cn2ccc3nc(C)c(C(=O)N4CCN(c5cc(C)ccc5C)CC4)cc3c2=O)cc1`, the Potency is reported as inconclusive: 10 µM [inhibitor, single point]. With `COc1ccc(-c2cc(N3CCCN(C(=O)Cc4cccc(F)c4)CC3)n[nH]2)cc1` the “activity, negative = inhibition” value was inactive: -10.5%. For `COCCNc1ncnc2onc(-c3ccc(F)cc3)c12`, the “activity, negative = inhibition” value was inactive: -11.5%. With `CN1CC(=O)N(C2CCCC2)Cc2c1ncnc2N1CCN(c2ncccn2)CC1` the Potency was inconclusive: 17.8 µM [inhibitor, single point]. For `CC(C)Oc1ccc(C(=O)NC2CCN(c3cnn(C)c(=O)c3)CC2)cc1`, the Potency was inconclusive: 4.47 µM [inhibitor, partial curve]. In the case of `CCOc1ccc(CNC(=O)CN2C(=O)C3CCCCN3c3ccc(C(=O)N4CCCC4)cc32)cc1` (centres undefined), the Potency is reported as inconclusive: 12.6 µM [inhibitor, single point]. With `Cc1c(Cl)cccc1NC(=O)C(=O)NCC(c1cccnc1)N1CCN(c2ccccc2)CC1` (centres undefined) the Potency was inconclusive: 17.8 µM [inhibitor, single point]. In the case of `COc1ccc(-c2cc(C(F)(F)F)nc(SCCC(=O)Nc3cccc(O)c3)n2)cc1`, the Potency is reported as inconclusive: 11.2 µM [inhibitor, single point]. With `CC(C)(C)CC(=O)N[C@H]1C[C@@H](Cc2cc(CN3CCN(c4ccccc4)CC3)on2)C1(C)C` the Potency was inconclusive: 17.8 µM [inhibitor, single point]. In the case of `CC(=O)NCCc1ncc(C)n1C1CCCCCCC1`, the Potency is reported as inconclusive: 3.98 µM [inhibitor, partial curve, poor fit]. With `CCOc1ccc(CCNC(=O)c2sc3ncccc3c2-n2c(C)ccc2C)cc1` the Potency was inconclusive: 11.2 µM [inhibitor, single point]. In the case of `CCCNC(=O)C1CCC(Cn2c(=O)c3sccc3n(CC(=O)Nc3ccccc3C)c2=O)CC1` (centres undefined), the Potency is reported as inconclusive: 10 µM [inhibitor, single point]. In the case of `CC(C)(CC1Cc2ccccc2C1)NC(=O)C1CC2(CCNCC2)CN1` (centres undefined), the Potency is reported as inconclusive: 12.6 µM [inhibitor, partial curve, poor fit]. With `CCOC(=O)C1(Cc2cccc(OC)c2)CCCN(C(=O)CCN2CCCCO2)C1` (centres undefined) the Potency was inconclusive: 17.8 µM [inhibitor, single point]. In the case of `CCCN(C(=O)c1sc2nc3n(c(=O)c2c1C)CCCC3)c1ccccc1C`, the Potency is reported as inconclusive: 10 µM [inhibitor, partial curve, poor fit]. For `Cc1ccc2c(c1)CC(C)N2S(=O)(=O)c1nnc(NC(=O)C(C)C)s1` (centres undefined), the “activity, negative = inhibition” value was inactive: 1.55%. For `CC1=C[C@@H](CNC(=O)C(C)(C)C)[C@H](C(C)C)C[C@H]1CC(=O)N1CCN(c2ccccn2)CC1`, the “activity, negative = inhibition” value was inactive: -5.65%. For `COc1ccc(-c2noc([C@@H]3CCCN3C(=O)Cc3ccc(F)cc3)n2)cc1`, the Potency was inconclusive: 20 µM [inhibitor, single point]. For `O=C(NC1CCN(c2cc(-c3ccccc3)[nH]n2)C1)c1ccsc1` (centres undefined), the Potency was inconclusive: 4.47 µM [inhibitor, partial curve, poor fit]. For `c1ccc(CC2=NOC3(CCCN(Cc4ccns4)C3)C2)cc1` (centres undefined), the Potency was active: 6.31 µM. With `CCOC(=O)c1c(C)[nH]c(C)c1S(=O)(=O)NCC(=O)N1CCN(c2cc(Cl)ccc2C)CC1` the Potency was inconclusive: 17.8 µM [inhibitor, single point]. For `COc1ccc(-c2noc(-c3cccn3CC(=O)Nc3ccc(C)cc3C)n2)cc1F`, the Potency was inconclusive: 0.0708 µM [inhibitor, full curve, poor fit]. For `Cc1ccc(-n2cc(CN3CCC(CCO)CC3)c(-c3cccc(C)c3)n2)cc1`, the Potency was active: 10 µM. With `CC(=O)c1ccc(NC(=O)COc2ccccc2-c2nc(-c3ccccc3)no2)cc1` the “activity, negative = inhibition” value was inactive: 31%. In the case of `Cc1ccc(CN2CCCN(S(=O)(=O)c3ccccc3)CCC(=O)NCC2)o1`, the Potency is reported as inconclusive: 8.91 µM [inhibitor, partial curve, poor fit]. For `COc1ccc(NC(=O)CCCc2nnc3n(CCC(C)C)c(=O)c4sccc4n23)cc1Cl`, the Potency was inconclusive: 5.62 µM [inhibitor, partial curve]. For `O=C(c1ccnc(-c2nnc3ccc(Nc4ccccc4)nn23)c1)N1CCCCC1`, the Potency was inconclusive: 22.4 µM [inhibitor, single point]. In the case of `COc1ccc(/C=C/c2onc(C)c2S(=O)(=O)N2CCC(C(=O)N3CCCCC3)CC2)cc1`, the Potency is reported as inconclusive: 17.8 µM [inhibitor, single point]. With `CC(C)OC(C)C(=O)N1CCc2onc(-c3ccc(C(F)(F)F)cc3)c2C1` (centres undefined) the Potency was inconclusive: 11.2 µM [inhibitor, single point]. For `Cc1ccc(-c2noc(CSc3nnc(C)n3-c3ccc(C)cc3)n2)cc1`, the Potency was inconclusive: 17.8 µM [inhibitor, single point]. In the case of `OCCc1cnc2c(-c3nc(-c4cccnn4)no3)cnn2c1`, the “activity, negative = inhibition” value is reported as inactive: -24.2%. With `Cc1ccc(CN2C(=O)[C@@H]3C[C@@H](O)CN3C3(CN(Cc4cccc(OC(F)(F)F)c4)C3)C2=O)o1` the Potency was inconclusive: 4.47 µM [inhibitor, partial curve]. For `COC(=O)[C@H](Cc1ccc(OC)cc1)NC(=O)[C@H]1CN(C(C)=O)CCN1C(=O)C1CCCCC1`, the Potency was inconclusive: 3.98 µM [inhibitor, single point]. For `Cc1ccccc1NC(=O)CSc1nc2ccccc2c2nc(CCn3c(C)nc4ccccc43)nn12`, the Potency was inconclusive: 17.8 µM [inhibitor, single point]. For `O=C(Nc1ccc2c(c1)OCCO2)N1CCC(Cc2noc(C3CCOCC3)n2)C1` (centres undefined), the Potency was inconclusive: 14.1 µM [inhibitor, partial curve, poor fit]. In the case of `CN(Cc1cccc(C(F)(F)F)c1)C(=O)c1cccc(Cl)c1`, the Potency is reported as inconclusive: 15.8 µM [inhibitor, single point]. For `CCOc1ccccc1Nc1sc(C(=O)c2ccc(Cl)cc2)c(N)c1C(=O)NCCc1ccccc1`, the Potency was inconclusive: 17.8 µM [inhibitor, single point]. For `O=C(CN1C(=O)C(c2ccccc2)=NC12CCCC2)NCc1ccc(F)cc1`, the “outcome” value was “inactive”. For `Brc1ccc(CN2CCc3nc(N4CCN(c5ncccn5)CC4)ncc3C2)cc1`, the Potency was inconclusive: 11.2 µM [inhibitor, single point]. In the case of `O=[S+]([O-])(c1ccccc1)N1CC2(CCCCN2Cc2cccnc2)Cc2ccccc21` (centres undefined), the Potency is reported as active: 8.91 µM. In the case of `COc1ccc(NC(=O)CSc2nc3c(c(=O)[nH]2)CCC3)cc1`, the “activity, negative = inhibition” value is reported as inactive: 6.29%. With `C[C@]1(O)CCN(C(=O)c2ccc(-c3cnco3)cc2)C[C@@H]1O` the “activity, negative = inhibition” value was inactive: 0.405%. In the case of `CCOC(=O)c1c(C)c(C(=O)NCc2ccc(Cl)cc2)c(C)n1CC`, the Potency is reported as inconclusive: 20 µM [inhibitor, single point]. In the case of `Cc1ccc(C(CC(=O)N2CCN(c3ccc([N+](=O)[O-])cc3)CC2)c2cn(C)c3ccccc23)cc1` (centres undefined), the Potency is reported as inconclusive: 0.794 µM [inhibitor, full curve, poor fit]. With `CC(C)c1ccccc1Oc1c(C(F)(F)F)oc2c(CN3CCN(C)CC3)c(O)ccc2c1=O` the Potency was active: 0.316 µM. For `Cn1c(-c2ccc(S(=O)(=O)N3CCCC3)cc2)csc1=Nc1ccc(Cl)c(Cl)c1`, the Potency was inconclusive: 14.1 µM [inhibitor, partial curve, poor fit]. For `CCC(C)n1cnc2cccnc21` (centres undefined), the “activity, negative = inhibition” value was inactive: 23.8% [at 44.1 µM]. With `Cc1cc(Cn2cc3c4c(cccc42)[C@H](CC(C)C)N[C@H](C(=O)N2CCN(C)CC2)C3)no1` the Potency was inconclusive: 3.16 µM [inhibitor, full curve].
